Reference: the RNAGym collection of RNA variant scans (doi:10.7554/elife.90254)
Read counts are not given, so values of variants with three or more changes are uncertain.

B1: OR4K15 (parent)
chain: GUUAACGGUCAUAGGCCAUGGAAACUAGGAGCACCAUUUCGCUGCCAGUGAAGAAAUGAACAAAGAAAAUCUGGGCCAGGCAGGCAUCAAAAGAAAUAGUCUUGCGCUCAACCAGAAAGUCUGUAAUCAUUUUAAGGGUA

Variants of: B1
Experiment: self-cleavage, relative activity (ratio to wild type); higher = more cleavage; in vitro, sequencing; the parent is a self-cleaving ribozyme

| Variant | self-cleavage |
| --- | --- |
| A23U U57C A69G U103C A129G | 0.62 |
| A24C U38C C109U | 0.7 |
| A24G A52G U100A | 0.58 |
| A24G A51G A126G | 0.58 |
| A24G A56U G84A | 1.45 |
| A23G U49C A60G U70C A118G | 0.17 |
| A24G A36G A56U A94C | 1.15 |
| A24G A52G A90G U108A | 0.04 |
| A24G A56G A60G A63G U100A | 0.7 |
| A23G U102C U131C | 1.29 |
| A24G A59U A63U U108A | 0.06 |
| A24C A67G A110G | 0.17 |
| A24C A51U A55G A62G | 1.14 |
| A24C U57A A69G A96U U108C | 0.04 |
| A23G U97A U122C | 0.5 |
| A24G A51C A55G | 0.96 |
| A24G A47G A135U | 1.02 |
| A24G A51G A111G U124C U131A | 0 |
| A24G A51G A62U | 1.45 |
| A23G U103A U108C A110G | 0.01 |
| A23U U37C A94G U132C | 1.87 |
| A23U A52G A92G A111G | 0.06 |
| A24C U43A A52G A66G U102C | 2.32 |
| A24G A52G A96G U132C | 2.03 |

| Variant | self-cleavage |
| --- | --- |
| A24C A69G A78G G83A | 0.4 |
| A24C A82G U87A A89G A91G | 0.13 |
| A23G U72G A118G | 0.18 |
| A24G A52G A59G U100A | 0.32 |
| A23U U43C U70C A90G | 0.3 |
| A24G A54G A89U | 0.79 |
| A23U A114U A129G | 0.04 |
| A23U A51G A95G A116U | 0.04 |
| A23U C32A A54G C61A A98G U102A | 0.05 |
| A24G A51U A54G A60G A67U A91G | 0.89 |
| A24G A30G A62G | 1.42 |
| A24C A33G A62G A67G U122C | 0.28 |
| A24G A56G U72A U127C | 0.36 |
| A24G A59G U122C A134G A140U | 0.86 |
| A24C A51G A89G A96G | 1.09 |
| A24G A30U A63C U132C | 1.42 |
| A23U A30G A64G | 1.25 |
| A23G U72C A91G | 0.28 |
| A24G A30G A90U A92U U120C | 1.08 |
| A23U U38C A64G | 1.27 |
| A24G A60G A66C | 0.95 |
| A24G A60G A66U | 1.13 |
| A24G A47G A78G U122C A134G | 0.11 |
| A24G A30G U43A | 0.74 |

| Variant | self-cleavage |
| --- | --- |
| A24C U103C U127C | 0.84 |
| A24C U57C A89G A96G G106U | 0.02 |
| A23U U38A A69G | 1.15 |
| A24C U57C A92G | 0.68 |
| A23U U38C A67G A69G C107G U120C | 0.06 |
| A24C A126U A129U | 0.58 |
| A24G A52G A63G | 1.26 |
| A24G A63G G79A A89G A95G U108C | 0.01 |
| A23G U57C A59G U130C | 0.81 |
| A23U A67G A116G | 0.83 |
| A23U A30G U70C | 1.03 |
| A24G A27G A63C A66U | 1.02 |
| A24G A60G U124A U131C | 0.2 |
| A24G A56G A62G U87C C101U G115U | 0 |
| A23G U49C U139A | 0.3 |
| A23G U57C A78G A140G | 0.04 |
| A24C A118G U127A | 1.71 |
| A23U A51G A117U | 0.54 |
| A24G A47G U49C A59G U100C U120C | 1.02 |
| A24G A47U U49C A54G A91G A94G U124C A126G A140G | 0.04 |
| A24G A30G A62G A92G | 1.02 |
| A23U U43A C76U | 0.12 |
| A24C A54C U103C A135G | 1.05 |
| A23U A60G A91G A95G C105U A118U U122C | 0.04 |

| Variant | self-cleavage |
| --- | --- |
| A23G U72A U108A | 0.02 |
| A24G A33G A82G | 0.74 |
| A24G A59G A95G U102A | 1.29 |
| A23G U72C U100A A126G | 0.02 |
| A24C U131C A140G | 1.28 |
| A23G U72A A78G U87C | 0.39 |
| A23U A33G A51G A59G A86G A111G | 0.02 |
| A23G U49A A134G | 1.08 |
| A24C A56G A68G | 1.14 |
| A24G A59G A140G | 0.94 |
| A23U A60G A64G | 1.27 |
| A24G A52G A91U | 1.42 |
| A23U A60G A95G A111G | 0.02 |
| A24G A33G U43C A78G | 0.17 |
| A23U A54G U120C | 0.97 |
| A24G A64G A95U | 0.24 |
| A23G U49C A51G G84A | 1.59 |
| A23G U131C G136A | 1 |
| A24C A55U A60G | 0.28 |
| A23U A62U A96G | 1.6 |
| A24G A60G A116G A126G U127A | 0.18 |
| A23U U49C A56G U57C | 1 |
| A24G A56G U108C | 0.03 |
| A24G A64G U72A A94G A135U | 0.48 |

| Variant | self-cleavage |
| --- | --- |
| A24G A51G A60G U72C A91G | 0.22 |
| A24G A51C A78U U122C | 0.08 |
| A24G A51U A60G A94G | 0.67 |
| A23G U100C U103C | 1.52 |
| A24G A62U A66G U131C | 1.05 |
| A23U G29U A52G A55G A78G A125G | 0.08 |
| A23U A60G C101A | 0.03 |
| A23U U43C A59U | 0.89 |
| A24C A66G A67G | 0.61 |
| A24G A47G A78G A94U A111G | 0 |
| A24G A27G A91C U102C | 1.91 |
| A23U A69G U108A | 0.04 |
| A24G A60G U87A A98G | 0.27 |
| A23U A95G A118U | 1.73 |
| A24G A59G U103C | 0.49 |
| A23U A55G G93A A96G A116G U122C | 0.95 |
| A24G A64G A89G A96G | 1.55 |
| A24G A64U A95U U102C | 1.85 |
| A23U U72A A129G | 0.12 |
| A24C U57C U122C U131G A140G | 1.68 |
| A24C A55G A86G | 1.28 |
| A24G A47G A60G A67G | 0.38 |
| A23U A30G A59G A66U A90G | 0.77 |
| A24C A52C U70C | 0.62 |

| Variant | self-cleavage |
| --- | --- |
| A23G U108C U131G | 0 |
| A24G A33U U100C | 2.37 |
| A24G A56G U102C | 1.29 |
| A24G A52G A78G U124A A129U | 0.29 |
| A23U A62G A118G A140G | 0.9 |
| A24G A60G U102A A129U | 0.17 |
| A24G A64G U130C | 0.92 |
| A23U U39C A54G U100G | 1.25 |
| A24C A59G A92G A110G A118G | 0.05 |
| A24C A64G A91G A135G | 2.04 |
| A24G A54G U102C U108A A125G | 0.01 |
| A24G A54G U127C | 0.67 |
| A24G A30G G74A G115A A126G | 0.03 |
| A23G U108C U131C A140G | 0.01 |
| A23G U72A A96G A110G | 0.1 |
| A23U A51C U103C | 0.49 |
| A23U A78G U102C A125G | 0.22 |
| A24G A47G A95C | 0.82 |
| A23U A89G A94G | 1.08 |
| A24G A55G A92G A96G U108C | 0.05 |
| A24G A54U G80U | 0.18 |
| A23U A54U U72C A98G | 0.08 |
| A24G A60G U87C | 1.23 |
| A24C A67G A86G | 1.27 |

| Variant | self-cleavage |
| --- | --- |
| A23U U57C U132C | 1.4 |
| A24G A27G A52G A56G A118G | 0.64 |
| A24G A51G A55G | 1.97 |
| A24G A52U U87C U122A | 1.09 |
| A23G U70C A78U A95G U102C | 0.77 |
| A24C A66G U124C | 0.88 |
| A23U U100C A117G A140G | 2.17 |
| A23U A96G G123A | 0.8 |
| A24G A55G A78G U108C A116G U120C | 0 |
| A23U U26A U49C A94G | 1.08 |
| A23G U122G U130C | 1.92 |
| A24G A56G A94U | 1.02 |
| A24G A27G U43C A55G G80A A125G | 0.03 |
| A23U A36U U38C A56G A67G A135G | 1.3 |
| A23U U39C U49C A82G A126U | 0.29 |
| A24G A27U A30G U39C U49C A54U | 1.59 |
| A23G U97C A116U A126G | 0.14 |
| A23U A24G U108A | 0.03 |
| A23G U87C A126G | 0.23 |
| A24G A36G U49C | 1.25 |
| A23U A68G A78G A117U A125G | 0.02 |
| A23U G29U U37C | 2.19 |
| A23G U49C A82G A98G U108C A126G | 0.01 |
